The whole screen tested about 310,000 compounds, of which about 2,200 (0.71%) showed an effect of 50% or more. Effects have a minus sign here. This is one part of the list.
Target: human ether-à-go-go-related gene (hERG) potassium channel (human, UniProt Q12809)
Assay: primary screen, population patch clamp on CHO cells stably expressing hERG

human ether-à-go-go-related gene (hERG) potassium channel, sequence (Q12809 whole entry, looked up): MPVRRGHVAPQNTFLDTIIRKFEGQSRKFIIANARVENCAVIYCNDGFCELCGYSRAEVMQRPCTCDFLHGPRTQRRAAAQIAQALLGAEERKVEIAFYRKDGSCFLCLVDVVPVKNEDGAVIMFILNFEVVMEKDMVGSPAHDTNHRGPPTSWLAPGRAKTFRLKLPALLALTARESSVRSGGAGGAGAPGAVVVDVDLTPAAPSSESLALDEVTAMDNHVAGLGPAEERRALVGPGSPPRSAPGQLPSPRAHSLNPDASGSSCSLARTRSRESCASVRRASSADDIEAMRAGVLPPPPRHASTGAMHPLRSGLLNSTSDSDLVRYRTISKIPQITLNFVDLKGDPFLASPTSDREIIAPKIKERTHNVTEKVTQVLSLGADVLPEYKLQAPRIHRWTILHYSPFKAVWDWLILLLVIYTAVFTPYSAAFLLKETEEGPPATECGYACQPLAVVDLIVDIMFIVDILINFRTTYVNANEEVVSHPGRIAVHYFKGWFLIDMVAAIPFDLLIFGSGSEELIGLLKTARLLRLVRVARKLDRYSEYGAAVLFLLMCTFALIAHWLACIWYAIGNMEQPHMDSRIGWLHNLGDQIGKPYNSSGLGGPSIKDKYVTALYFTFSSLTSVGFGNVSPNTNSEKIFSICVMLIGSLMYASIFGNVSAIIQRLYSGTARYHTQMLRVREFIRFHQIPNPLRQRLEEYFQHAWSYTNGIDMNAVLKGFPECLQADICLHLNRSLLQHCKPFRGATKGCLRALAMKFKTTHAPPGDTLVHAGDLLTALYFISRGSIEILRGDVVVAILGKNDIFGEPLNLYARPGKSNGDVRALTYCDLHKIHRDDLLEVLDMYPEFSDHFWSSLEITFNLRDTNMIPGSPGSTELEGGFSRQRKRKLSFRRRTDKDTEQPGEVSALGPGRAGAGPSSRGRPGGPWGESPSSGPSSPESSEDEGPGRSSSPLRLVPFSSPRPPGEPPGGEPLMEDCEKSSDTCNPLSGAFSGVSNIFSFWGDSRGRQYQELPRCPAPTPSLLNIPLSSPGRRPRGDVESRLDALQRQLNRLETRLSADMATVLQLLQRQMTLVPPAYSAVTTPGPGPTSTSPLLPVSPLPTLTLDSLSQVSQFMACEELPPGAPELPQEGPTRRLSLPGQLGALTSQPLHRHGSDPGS

Point of comparison: NNC(=O)c1ccccc1CO, “hERG current change (%, negative = inhibition) at 1uM” value 3.03%. Against it:
- CC(=O)c1ccc(S(=O)(=O)N2CCN(CCOc3ccc(Br)cc3)CC2)cc1 — higher, 11.3%
- CCOC(=O)[C@H]1[C@H]2COc3ccc(C)cc3[C@@H]2N2C(=O)c3ccc(C)cc3NC(=O)[C@@]12C — higher, 7.82%
- Cc1cnc(=O)[nH]c1SCc1cccc([N+](=O)[O-])c1 — higher, 7.53%
- Oc1cc(O)cc(/C=C/c2ccc(O)c(O)c2)c1 — higher, 5.83%
- O=C(Oc1ccc(-c2cnc3ccccc3n2)cc1)c1cc([N+](=O)[O-])ccc1Cl — higher, 15.2%
- CCCN(C(=O)c1ccco1)c1nnc(-c2ccncc2)s1 — lower, -5.41%
- COC(=O)c1cc(C(=O)N2CCc3ccccc32)cc([N+](=O)[O-])c1 — lower, -2.21%
- Cc1cccc(C)c1NC(=O)CCn1cnc2ccccc2c1=O — higher, 14.9%
- COc1ccc(OC)c(C(C)NC(=O)Nc2ccccc2)c1 (centres unmarked) — higher, 6.31%
- CCOC(=O)N1CCN(C(=O)CSCc2ccccc2C)CC1 — higher, 7%
- COc1ccc(OC)c(NC(=O)N[C@H](Cc2ccccc2)C(=O)NN)c1 — higher, 23.9%
- CCN(CC)CC(O)CN1c2ccccc2Sc2ccccc21 (centres unmarked) — higher, 7.71%
- CC(=O)Nc1ccc(S(=O)(=O)CCC(=O)O)cc1 — higher, 14.5%
- Cn1cc(C(=O)Nc2ccc3c(c2)CCC3)cn1 — higher, 15.4%
- CC(=O)Nc1ccc(OCC(=O)c2cc(C)ccc2C)cc1 — higher, 8.78%
- COc1ccc(-c2nnc3ccc(SCC(=O)N4CCCCC4)nn23)cc1OC — higher, 6.34%
- Cc1nc(N=Nc2ccc(O)cc2)n[nH]1 — higher, 3.4%
- COC(=O)CN(C#N)c1nc(NCc2ccccc2)nc(OC)n1 — higher, 9.91%
- COCCC(=O)N1CCC(Oc2ccc(C(=O)N(C)C3CCCCC3)cc2)CC1 — higher, 14%
- Cn1c(=O)n(C)c2cc(NC(=O)c3ccc(F)cc3)c(Br)cc21 — higher, 12.5%
- O=C(NCCN1CCOCC1)c1cc(-c2ccc(Cl)cc2Cl)on1 — lower, 2.97%
- Cc1cc(C)c(S(=O)(=O)N2CCCCC2CCNC(=O)C(=O)NCc2ccccn2)c(C)c1 (centres unmarked) — higher, 15.1%
- CCOc1ccc2[nH]c3c(NCCc4ccc(OC)c(OC)c4)ncnc3c2c1 — lower, -0.786%
- CCn1nc(C)c(NC(=O)c2cc(Br)ccc2Cl)c1C — higher, 6.77%
- COC(=O)c1ccc(S(=O)(=O)NCc2ccco2)o1 — higher, 9.18%
- COc1ccc(C(NC(C)=O)c2c(O)ccc3ccccc23)cc1OC (centres unmarked) — higher, 5.83%
- Nc1ccnn1Cc1cccnc1 — higher, 9.35%
- COCc1cc(CN2CCCC2)c(O)c2ncccc12 — higher, 10.5%
- COc1cc(-c2nc3oc4ccccc4c(=O)c3c(=O)n2Cc2ccco2)cc(OC)c1OC — higher, 15.4%
- CC1=C(C(=O)OC(C)C)C(c2cncc(-c3ccc(F)cc3)c2)C(C#N)=C(N)O1 (centres unmarked) — higher, 9.33%
- CC(=O)Nc1ccc(S(=O)(=O)Nc2cccc(-c3nc4cc(C)ccc4o3)c2)cc1 — higher, 8.09%
- CC(C)C(=O)N1c2ccccc2NC2=C(C(=O)CCC2)C1c1ccc(N(C)C)cc1 (centres unmarked) — higher, 8.65%
- CNC(=O)Nc1ccc(C2SCCS2)cc1 — higher, 14.6%
- CC(=O)c1ccc2noc(-c3ccc(C)cc3)c2c1 — higher, 11%
- Cc1cccc(C(=O)O/N=C(\N)c2ccc(Br)cc2)c1 — higher, 11.8%
- Cc1ccc(NC(=O)Cc2nn(C)c(=O)c3ccccc23)cc1F — higher, 14.4%
- COc1ccccc1NS(=O)(=O)c1cc([N+](=O)[O-])ccc1N/N=C/c1c(C)[nH]c2ccccc12 — higher, 10.2%
- CCOC(=O)C1CCCN(Cc2ccccc2OCC)C1 (centres unmarked) — lower, 1.34%
- CN1C(=S)SC2CS(=O)(=O)CC21 (centres unmarked) — higher, 9.97%
- NC(=O)C1CCN(C(=O)c2cccc3ccccc23)CC1 — higher, 10.7%
- Cc1cnccc1CN(C)Cc1cn(C)nc1-c1ccc(Oc2ccccc2)cc1 — higher, 12%
- COc1cc(OC)cc(C(=O)NNC(=O)c2ccccn2)c1 — higher, 14.8%
- CN(c1ccccc1)c1nc2ccsc2c(=O)s1 — higher, 14%
- CCOC(=O)c1ccc(NC(=O)CNC(=O)c2ccco2)cc1 — higher, 16.1%
- CC1(C)CC(=O)N(c2ccc(C#N)cc2)C(=O)C1 — higher, 13.2%
- CN1CCN(S(=O)(=O)c2ccc(NC(=O)C3CCCO3)cc2)CC1 (centres unmarked) — lower, -3.45%
- CC(C)(C)NC(=O)CCC1COc2ccccc2O1 (centres unmarked) — lower, 1.58%
- CCOc1ccc(/C=C(\C#N)C(=O)NCC2CCCO2)cc1OCC (centres unmarked) — higher, 12.9%
- O=C(NCc1ccco1)C1CCCN1C(=O)Nc1ccccc1 (centres unmarked) — higher, 3.15%
- O=[N+]([O-])c1cc(-c2ccc(/C=N/n3cnnc3)o2)ccc1Cl — higher, 5.06%
- Cn1c(SCC(=O)c2ccccc2)ncc(C(=O)Nc2ccc(F)cc2)c1=O — higher, 7.11%
- COc1ccccc1N1CCN(CCc2n[nH]c(=S)n2-c2ccccc2)CC1 — higher, 7.47%
- Cc1ccc(N2CC(C(=O)Nc3nnc(SCCC4OCCO4)s3)CC2=O)cc1 (centres unmarked) — higher, 13%
- CNC(=O)/C(=C\c1cccc(Oc2ccccc2)c1)NC(=O)c1ccccc1 — higher, 11.5%
- CCOP(=O)(OCC)C(O)c1ccc2c(c1)OCO2 (centres unmarked) — higher, 11.5%
- Cc1ccc(C)c(OCC(=O)N(C)CC(=O)Nc2ccc(Cl)c(C(F)(F)F)c2)c1 — higher, 6.3%
- O=C(NCCCCc1ccccc1)C1CC(c2ccccc2[N+](=O)[O-])=NO1 (centres unmarked) — lower, -1.68%
- COc1ccc(NC(=O)C2CCCN(S(=O)(=O)c3ccc4c(c3)CCCN4C(C)=O)C2)cc1Cl (centres unmarked) — higher, 9.41%
